These results are taken from the RNAGym collection of RNA variant scans (doi:10.7554/elife.90254).

Read counts are not given, so values of variants with three or more changes are uncertain.

To fix the notation:
B1: LINE1-mini (parent)
chain: GGCAGAGCUCAACACAGCGUGGCAAAGUGGCUGUGGCUAGACUGCC

Variants of B1 are the subject of the data set. Nature of the data set: self-cleavage, relative activity (ratio to wild type); higher = more cleavage; in vitro, sequencing; the parent is a self-cleaving ribozyme.
As for C8G G29U C42G, the self-cleavage was 0.11.
For C8G C13U G36C, the self-cleavage amounted to 0.23.
The result for C8U A24U G36U reads 0.17; that for C8U A12U A26U G30U, 0.13; that for C8G U9C G22A A25U, 0.01.
The result for C8G C15A C37U reads 0.08.
As to C8U C10G C23G, the self-cleavage was found to be 0.02.
With C8G C18A C37U, the self-cleavage amounted to 0.15.
The result for C8G C18A C37A reads 0.04; that for C8G U32G C37U, 0.06; that for C8U A16C U38C, 0.42.
Consider C8G C31U U38C, for which the self-cleavage was 0.03.
Take C8G G19A U20G G35C A41C: the self-cleavage was found to be 0.1.
Turning to C8G U28G C42U, the self-cleavage was 0.02.
C8U A12G C13U C15G C18U G19C G29U: the self-cleavage amounted to 0.07.
With C8G C13U U20A U34A, the self-cleavage worked out at 0.02.
As for C8U A12U G17U U34C, the self-cleavage stood at 0.14.
In the case of C8G G27C G29C, the self-cleavage came to 0.04.
The result for C8G G22C U43G C45A reads 0.13; that for C8G U20C A26U, 0.02.
The result for C8U C10A G22A reads 0.01; that for C8U A24G U28A G44U, 0.18.
As to C8G C18A C23U G36A, the self-cleavage was 0.
As to C8G G17C A39G A41C, the self-cleavage turned out to be 0.01.
For C8U A14G A39G, the self-cleavage is 0.07.
C8U A12U A14U U28G G40U: the self-cleavage was determined as 0.02.
The result for C8U C10A A26U G30U G35C U38G reads 0.01.
In the case of C8U A24G G30U U34A A41U, the self-cleavage came out at 0.09.
As for C8U C10G A14C C23A A26G U32G, the self-cleavage came to 0.01.
The result for C8U A11C A12G C18U C37A U43C reads 0.01; that for C8G G17U G27C U32G G33C U34A C45U, 0.02; that for C8G C31U G40C, 0.04.
With C8G G21A A26U G29U the figure was 0.15; with C8U A12G G29A, 0.04; with C8U A14G G22C U28G G33C, 0.03.
On to C8U A16U G27A, for which the self-cleavage amounted to 0.07.
As for C8G U20C A25C, the self-cleavage was determined as 0.05.
With C8G C15A U28A U38G C46U, the self-cleavage was 0.02.
With C8G G36C C46U, the self-cleavage was found to be 0.33.
With C8G U9G U38A, the self-cleavage turned out to be 0.01.
Turning to C8G C31A G36C, the self-cleavage is 0.03.
C8G C31A G36A: the self-cleavage was 0.02.
As to C8G C31G G40C, the self-cleavage was 0.01.
As for C8G U9C U32A, the self-cleavage stood at 0.01.
Turning to C8U A16U C18U G29U G30A, the self-cleavage amounted to 0.08.
Regarding C8U A11G C15U G19C U32G C37G, the self-cleavage turned out to be 0.02.
In the case of C8U A11C C13A C23A C42A, the self-cleavage was 0.02.
In the case of C8U A12C G17A A39U, the self-cleavage amounted to 0.02.
With C8G G27U A39U C46U the figure was 0.01; with C8G C15A G19A A39C C45A, 0.02; with C8G C23G G27C, 0.02.
Take C8U A14G G29U: the self-cleavage was 0.17.
Consider C8U A26G U32G, for which the self-cleavage was 0.09.
C8U A14G U32A G33C: the self-cleavage was 0.2.
C8G G36A C42G: the self-cleavage stood at 0.04.
For the variant C8U A16U G30C C42A, the self-cleavage was determined as 0.07.
Regarding C8U A41G G44U, the self-cleavage was determined as 0.29.
With C8U A16C C42G the figure was 0.09; with C8U A12G G19U, 0.01; with C8G C23A A25C C37A G44C, 0.01.
Turning to C8G U32G G33A G44U, the self-cleavage worked out at 0.04.
Take C8U A25C G40C C42G: the self-cleavage was 0.06.
As for C8U A25U A26G, the self-cleavage is 0.15.
Take C8G U20A A25U A26C: the self-cleavage turned out to be 0.06.
C8G C31U C37U G40U: the self-cleavage came to 0.03.
C8G U34G A41U: the self-cleavage was determined as 0.04.
C8G G36A U43A G44A C46G: the self-cleavage worked out at 0.01.
The result for C8U A11G C18A reads 0.01; that for C8G G21A A24C A25U A26G C37A, 0.13.
For C8U A12C C46G, the self-cleavage came out at 0.06.
The result for C8U C10A C46A reads 0.03; that for C8G C23A G33U, 0.02; that for C8G G33U C45G C46U, 0.08.
Regarding C8G G27C C42G, the self-cleavage turned out to be 0.04.
Take C8G G22C G30A U34C: the self-cleavage was 0.13.
Turning to C8G G29U G30U G33A, the self-cleavage was 0.13.
The result for C8G G17A C42U U43G reads 0.05; that for C8U C10A A14U C15G C42U G44C, 0.01; that for C8G G19A G44C, 0.02.
With C8G G19C C31A G36A the figure was 0.04.
In the case of C8G U32G C42G, the self-cleavage was 0.01.
As to C8G G29U C46U, the self-cleavage worked out at 0.08.
C8G C37G G40A C42G G44U: the self-cleavage turned out to be 0.09.
Turning to C8G C23G U34G, the self-cleavage came to 0.01.
Consider C8U A26C U38G U43C, for which the self-cleavage amounted to 0.04.
For C8G G21U C31A, the self-cleavage was determined as 0.06.
The result for C8U C10G C31A reads 0.01; that for C8U A11C G17C G21U U28G, 0.02.
The result for C8G U9G C15U reads 0.03; that for C8G G36A C46U, 0.05; that for C8G G35U U38A, 0.07.
On to C8U A11U G30A, for which the self-cleavage stood at 0.02.
Take C8G C18G G19U G30C U32C C37A A39G G40U A41U: the self-cleavage came to 0.
For the variant C8G C15A U28G A41U C42U, the self-cleavage stood at 0.15.
The result for C8G C18A A25G G29A reads 0.02; that for C8G U9C G29A G30A U34A, 0.01.
The result for C8G G21U U34G reads 0.02; that for C8G G30U G44U C46G, 0; that for C8U A14U U28C G30U A39U A41G C46U, 0.02.
Take C8G C15G A16G U20G G27C U28C: the self-cleavage was found to be 0.
Consider C8U A14C G21C G33U, for which the self-cleavage was determined as 0.01.
On to C8U A16U G17C U20A, for which the self-cleavage was found to be 0.11.
C8G G33U C37G C45U: the self-cleavage came to 0.07.
Consider C8U A14U G17U G22U A41C, for which the self-cleavage stood at 0.08.
For the variant C8G G30C G35C, the self-cleavage came out at 0.08.
For the variant C8U A12C G33U U34A G36A, the self-cleavage was determined as 0.03.
Regarding C8U C10A A26C A41G, the self-cleavage turned out to be 0.04.
The result for C8G C15U C23U A39C reads 0.14.
On to C8G U9G G19U C31U U32C, for which the self-cleavage amounted to 0.
Regarding C8G U9C C10A C15G C18A, the self-cleavage came to 0.01.
Turning to C8G U20C G30A U38C G44A, the self-cleavage worked out at 0.01.
Consider C8U A12G G21C A26C, for which the self-cleavage stood at 0.15.
With C8G C15G U34G C46A, the self-cleavage amounted to 0.08.
As for C8U A16G U20G, the self-cleavage amounted to 0.02.
Turning to C8G G21U G40U U43C, the self-cleavage came to 0.27.
With C8U A14U U28C the figure was 0.08.
With C8G U43A C46G, the self-cleavage amounted to 0.04.
Turning to C8G G19U U38C, the self-cleavage was 0.05.
Consider C8G U20C C37A, for which the self-cleavage turned out to be 0.02.
Take C8G G17C G40C: the self-cleavage was determined as 0.02.
The result for C8G C37U C42G reads 0.01; that for C8G C18U C23G, 0.09.
Regarding C8U A14U G17A G19A G29A C31A, the self-cleavage worked out at 0.08.
C8U A11U C23A: the self-cleavage came to 0.01.
Regarding C8U A11G C13G, the self-cleavage amounted to 0.1.
In the case of C8U A24U G35C C45A, the self-cleavage amounted to 0.18.
Take C8G U34C C46U: the self-cleavage amounted to 0.11.
The result for C8U A12G G21U G40U G44C reads 0.12; that for C8U A11U A12C, 0.01.
With C8G C18A U20A G35C G44U the figure was 0.03; with C8G G35U A41U, 0.06.
For the variant C8G U32A U38G, the self-cleavage was 0.02.
Take C8U A24G C31G G40U: the self-cleavage amounted to 0.02.
Turning to C8U A16G G33A U43A, the self-cleavage stood at 0.07.
Regarding C8G G22C C23G A25G C45U, the self-cleavage was found to be 0.06.
C8G G33C G40U: the self-cleavage was 0.02.
For C8G C15G G36C, the self-cleavage was 0.03.
Regarding C8G U9C C10A C15U C18A G40U, the self-cleavage was 0.03.
In the case of C8U A16C G17U U34C, the self-cleavage worked out at 0.12.
The result for C8G G33U G35C A41U reads 0.02; that for C8G G33A C46A, 0.01.
On to C8U A12C C13A G40U C46U, for which the self-cleavage stood at 0.05.
With C8G G27A G35C, the self-cleavage worked out at 0.04.
Consider C8U A11G C13G A14C, for which the self-cleavage was 0.02.
In the case of C8G C18U U32C, the self-cleavage is 0.02.
Take C8U C10G C18A U20C G29A A41U C42G: the self-cleavage amounted to 0.
As for C8G C15A G21C G33A A41G, the self-cleavage was 0.04.
With C8G C15A G33C the figure was 0.07; with C8U A11C G19A G40U, 0.04; with C8G C18G G30C, 0.03.
With C8G C23U U28A G30A the figure was 0.13.
As to C8G U34G G40A U43C, the self-cleavage was 0.
In the case of C8U A26U A39U, the self-cleavage is 0.06.
As to C8G U9G C10U A16U U38G C46U, the self-cleavage is 0.03.
Consider C8U C10G G17U C23U, for which the self-cleavage was found to be 0.03.
With C8U A26G G36A the figure was 0.05; with C8U A12C C15A, 0.03; with C8G C31A C45A, 0.07.
As to C8G U9A C10A C31A, the self-cleavage is 0.02.
Consider C8U A11U G19A U38A A41G C42U C45A, for which the self-cleavage worked out at 0.01.
As to C8G G19C C37U, the self-cleavage amounted to 0.02.
As to C8G C15U A25G C37U G44U, the self-cleavage was 0.08.
As to C8G C15U A24U C45G, the self-cleavage came out at 0.05.
For C8U A12C A14U G21U U28A, the self-cleavage amounted to 0.01.
Regarding C8G U28A A41C, the self-cleavage came to 0.07.
For the variant C8G U9G A12U A39C, the self-cleavage worked out at 0.02.
As for C8G G21U G27A C31G, the self-cleavage was 0.01.
